According to the supplement of paper PMC3334620:
Whole data set: some 33,000 sequences, median “E-score (-0.5 to 0.5)” near -0.012, cut for the highest 2% near 0.29. The list shows a part of the results.

biological target: T1, Ybr033w (UniProt P38073); assay: PBM E-score (8-mer binding enrichment) (E-score (-0.5 to 0.5)); higher = stronger / more preferred TF binding; most listed sequences are background and not binding sites; details: protein concentration: 200 nM; construct: GST-full length
T1 sequence: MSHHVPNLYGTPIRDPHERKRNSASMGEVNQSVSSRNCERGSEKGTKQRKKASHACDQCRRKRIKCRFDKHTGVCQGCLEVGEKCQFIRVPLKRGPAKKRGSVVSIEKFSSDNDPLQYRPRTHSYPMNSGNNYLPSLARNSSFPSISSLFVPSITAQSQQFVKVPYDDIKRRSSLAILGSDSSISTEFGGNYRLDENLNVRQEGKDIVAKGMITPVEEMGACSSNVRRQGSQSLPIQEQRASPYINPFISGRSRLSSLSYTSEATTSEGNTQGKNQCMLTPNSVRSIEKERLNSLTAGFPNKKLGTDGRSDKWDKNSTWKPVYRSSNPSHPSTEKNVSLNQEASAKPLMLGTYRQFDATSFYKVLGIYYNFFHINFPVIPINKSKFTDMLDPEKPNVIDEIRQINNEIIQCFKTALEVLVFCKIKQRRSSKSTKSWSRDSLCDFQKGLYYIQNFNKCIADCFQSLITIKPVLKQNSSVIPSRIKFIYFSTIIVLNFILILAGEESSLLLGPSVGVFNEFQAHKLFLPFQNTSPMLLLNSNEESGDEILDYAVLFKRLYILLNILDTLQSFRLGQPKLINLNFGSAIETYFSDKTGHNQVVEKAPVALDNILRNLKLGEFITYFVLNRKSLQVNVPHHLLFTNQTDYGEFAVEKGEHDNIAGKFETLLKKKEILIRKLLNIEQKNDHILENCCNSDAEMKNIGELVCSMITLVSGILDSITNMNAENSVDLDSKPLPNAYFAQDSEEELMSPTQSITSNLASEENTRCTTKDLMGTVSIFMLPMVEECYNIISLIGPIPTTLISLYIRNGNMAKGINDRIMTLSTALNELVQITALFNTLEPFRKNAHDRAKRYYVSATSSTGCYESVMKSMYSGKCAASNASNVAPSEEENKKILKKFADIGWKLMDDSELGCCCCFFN
In short: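 GST-tagged yeast TFs (full-length or DNA-binding domain) were made by PURExpress in vitro transcription/translation and applied at about 100-200 nM to universal all-10-mer Agilent arrays. The arrays were made double-stranded by primer extension, on fresh or once-stripped slides. Bound protein was detected with fluorescent anti-GST, and scans were normalised with masliner. Each ungapped eight-base word, pooled with its reverse complement, received an E-score (modified Wilcoxon-Mann-Whitney statistic) from the Universal PBM Analysis Suite.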

Row | Sequence | PBM E-score
1 | GCAGATCC | -0.138
2 | CCACATTC | 0.111
3 | AGGGGGCC | -0.39
4 | CATTAGCA | 0.169
5 | CTTTCCGC | -0.136
6 | AGGTGACT | -0.079
7 | TGACCTAA | 0.104
8 | ACCCGGTC | -0.293
9 | ACTTATTC | 0.199
10 | AAGCTTCG | 0.00914
11 | CGCATGAC | -0.112
12 | TCGTGCAA | 0.207
13 | AAGTTGAT | 0.197
14 | GAGGGTGC | -0.363
15 | CCGGCTTC | -0.165
16 | CATAATCA | 0.206
17 | ACTGATGC | -0.131
18 | AGTGTCTG | 0.0365
19 | CCTCTCTC | -0.164
20 | AATCAAGC | 0.0885
21 | AGACACCC | 0.00615
22 | CAACTTAC | -0.021
23 | CTGGCCCA | -0.332
24 | AGGTGTCG | -0.147
25 | CATCAGGA | 0.194

Row | Sequence | PBM E-score
26 | AGCCGCTA | -0.0601
27 | GGGAGGTA | -0.0849
28 | TCAGAGCA | -0.114
29 | GCACGGCA | -0.0804
30 | AAATTCCA | 0.258
31 | ATATGATA | 0.347
32 | ACGCTGTG | -0.00213
33 | ACAACAAC | 0.191
34 | ACTCAAAT | 0.192
35 | GACTTAAC | -0.216
36 | AATTAATA | 0.429
37 | GAGTGCGC | 0.00368
38 | CGCTCCAG | -0.202
39 | ATCACGTG | -0.0187
40 | ATAATATA | 0.321
41 | AGGGTTGC | -0.11
42 | CAAGCGCC | -0.133
43 | CACAGGAC | -0.0218
44 | AGTAGTTC | 0.307
45 | ACCTAGAG | -0.151
46 | GTCGGGCA | -0.212
47 | AAATCGAT | 0.0646
48 | ACTTTAGG | -0.0326
49 | CTTTGCAA | 0.103
50 | GGCGCTAA | -0.127

Row | Sequence | PBM E-score
51 | CCTCTCAG | -0.337
52 | GACTCCGC | -0.2
53 | AGACGTTG | 0.0485
54 | ACCCGTTG | -0.363
55 | ACCGGAAC | 0.167
56 | AAGAGAGG | -0.125
57 | GAAAAGTC | 0.00194
58 | AGAATGCT | 0.0947
59 | AAATGTTG | -0.0479
60 | TACATGGA | 0.0511
61 | CCAGCCAC | -0.00942
62 | CCCCGTAA | 0.0291
63 | GAGCCTAC | -0.126
64 | ATGAAACG | 0.13
65 | ATTATTGA | 0.151
66 | AGCAAAGC | -0.0264
67 | TAACATTA | 0.209
68 | TGCGAAAA | 0.219
69 | CCTCACGA | -0.174
70 | GTCCGGGA | 0.0146
71 | ATAATTCC | 0.348
72 | CCAATATC | 0.0188
73 | ATCTCACA | 0.102
74 | ACCTACCC | -0.152
75 | CGTGCGAC | -0.188

Row | Sequence | PBM E-score
76 | TAGGACCA | -0.153
77 | CATCCAAA | -0.0492
78 | ATTATATG | 0.289
79 | AGTGGCAG | 0.0137
80 | CACTTCGG | 0.0966
81 | GGTTCTCA | 0.0316
82 | CCCCGTAG | -0.175
83 | CTCAATGA | 0.127
84 | GAGAAACC | 0.13
85 | CTATCCCA | -0.144
86 | ACCTATGG | -0.0204
87 | AGTAATTA | 0.232
88 | CCTCCTTA | -0.179
89 | AGACGAGG | -0.279
90 | TAAACGTA | 0.189
91 | AACTCTTC | 0.0765
92 | ATCGCGTA | -0.0199
93 | ATAACGCC | 0.0172
94 | ACTGTTCG | 0.148
95 | ACGTGTGA | -0.113
96 | AACCGGTG | -0.285
97 | CTCGTACA | 0.139
98 | TAGTTTGA | 0.139
99 | TATTCACA | 0.188
100 | CGGGAATC | -0.0584

Row | Sequence | PBM E-score
101 | GCTGGGCC | -0.434
102 | CACTCGCG | -0.0339
103 | ATGTGGAA | 0.235
104 | GGAATAAC | 0.453
105 | CTGGTTAA | 0.138
106 | CCTCTTAG | 0.107
107 | CGGTCAAC | -0.00135
108 | GACAACCA | 0.0855
109 | CAACTGAG | 0.0852
110 | ACTTCAGA | -0.00082
111 | TAGCGCCA | -0.165
112 | TAGGGATA | 0.112
113 | GAAGCCGA | -0.0127
114 | AGACGCCG | -0.194
115 | GGCATCGA | -0.139
116 | CGGCCCAC | -0.206
117 | AATACACA | 0.191
118 | CCCTCCGC | -0.228
119 | AGAGTGTA | -0.0527
120 | AAAGGTCT | 0.0234
121 | ATAGAACA | 0.0739
122 | CCTGTTAA | -0.0364
123 | AGCGGCAG | -0.223
124 | CCAATCAG | -0.161
125 | CGTCACTA | -0.0312

Row | Sequence | PBM E-score
126 | ATGTACTA | 0.213
127 | ACTAAGGC | -0.0699
128 | ACCTTTAG | -0.0576
129 | CCGTGTTA | 0.0956
130 | GTAGCGGA | 0.146
131 | ATTGGCAA | 0.107
132 | CTGGTCGC | -0.0833
133 | CGTCGGGA | -0.0352
134 | ATTTCCCG | 0.257
135 | ACGCGGAT | 0.141
136 | AAAGCGCT | 0.15
137 | ATCACGCA | 0.0227
138 | TAGAGGAA | 0.0471
139 | AACTGTGT | 0.137
140 | GCTTGACA | -0.0917
141 | AGCAAGCA | -0.116
142 | GACGCTGA | -0.0215
143 | ACGGCCAT | -0.197
144 | GCCCCCGC | -0.294
145 | GGTTACCA | 0.0295
146 | CGAGCAAC | -0.0054
147 | TCCATGAA | 0.162
148 | GTCGATTA | 0.14
149 | TCACGTAA | 0.00198
150 | CGGCCAAA | -0.0249

Row | Sequence | PBM E-score
151 | CACCGCTA | -0.0953
152 | ATTGTTAA | 0.231
153 | CTGTTAAG | -0.107
154 | GCGCATTA | 0.142
155 | AGATCTTA | 0.159
156 | GTTACTCA | 0.0586
157 | CTTGCGCA | 0.049
158 | CGGGATGC | -0.167
159 | CGTGATGC | -0.151
160 | CCGACGGC | -0.324
161 | CGACGGAC | 0.00464
162 | CCATTGGA | -0.137
163 | GATGTGTA | 0.00086
164 | ATCAAGCG | 0.0814
165 | CATTTCGC | -0.0878
166 | CTTTGCGC | -0.119
167 | AAAATGAA | 0.081
168 | GTTTGAAA | 0.253
169 | ACAATGTG | 0.103
170 | GCCACATA | 0.174
171 | CGCTTACC | -0.123
172 | ACATGCGT | -0.104
